Results published in the supplement of paper PMC4466236.
Whole data set: some 33,000 sequences, median “E-score (dimensionless, -0.5 to 0.5)” near -0.058, cut for the highest 2% near 0.35. Some of the results follow.

system: MvaT; test: PBM 8-mer E-score (mean of HK and ME arrays) (E-score (dimensionless, -0.5 to 0.5)); higher = stronger relative binding preference; most listed sequences are background and not binding sites
Method in brief: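 Reported values are rank-based E-scores, taken as the mean of two universal arrays and parsed with a custom script. Each 8-mer score falls between -0.5 and 0.5. The arrays, ME and HK, were double-stranded 60-mers with a constant 25-mer primer region and a variable 35-mer region covering all 8-mers. They were probed, by an earlier protocol, with full-length P. aeruginosa MvaT carrying an N-terminal glutathione S-transferase fusion.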

| Sequence | PBM 8-mer E-score |
| --- | --- |
| AACCACCG | -0.0371 |
| ACGCGGAA | -0.0119 |
| CTATCGAA | 0.0668 |
| GTACTTCA | 0.0862 |
| CCGCATGA | -0.171 |
| CCCCGTCC | -0.258 |
| AAGCCGCG | -0.235 |
| CAGCCAGG | -0.245 |
| ACGCCATA | 0.0535 |
| CCTCTAGC | -0.191 |
| CATGACAA | -0.0668 |
| GAGAATAC | -0.00408 |
| CTAGGCCA | -0.211 |
| TCTTGAAA | -0.0285 |
| CTTTGTAC | 0.0969 |
| ATACCCAT | 0.212 |
| AACACGTG | -0.0185 |
| ACTGCCAG | -0.138 |
| GGTCTTAA | -0.0948 |
| TGACTTAA | 0.185 |
| ACACAAGC | -0.0709 |
| CATCCTAA | -0.091 |
| ACACTACT | 0.139 |
| CGAATCCC | -0.0846 |
| AAATTCAA | 0.226 |

| Sequence | PBM 8-mer E-score |
| --- | --- |
| CTGAGGAA | 0.0313 |
| CTGCTATC | -0.0872 |
| GGTCTTGA | -0.174 |
| AGGGTTAA | 0.0112 |
| AAAGCCAG | -0.0944 |
| AATTCGGG | 0.0589 |
| ACAACCCG | -0.033 |
| GGCCGCTA | -0.25 |
| AAAACGCA | 0.108 |
| ACATTTGC | 0.0645 |
| ACAGAATG | 0.00766 |
| AGCAAGTA | 0.235 |
| ACCTGATG | -0.126 |
| ATAGTATC | 0.165 |
| AATGGACC | -0.0836 |
| ACGACACG | -0.202 |
| GTAACCCA | 0.0633 |
| AGACTTAG | 0.0243 |
| ACGTTACG | -0.0185 |
| TATCCCAA | 0.0975 |
| TACATTGA | 0.278 |
| TATGAGGA | -0.193 |
| AGTTCGGC | -0.04 |
| ACTAAGAA | 0.121 |
| AGGAACAA | -0.0365 |

| Sequence | PBM 8-mer E-score |
| --- | --- |
| ACGCTTAC | -0.0937 |
| ACGAGTCC | -0.243 |
| GGCCATAC | -0.125 |
| GGACCAAA | -0.139 |
| CCCACTCA | -0.0678 |
| CCTAGTTA | 0.138 |
| CATCGTAG | -0.226 |
| AGGTATCA | -0.121 |
| ATCTATCC | 0.0466 |
| CATATCAC | 0.15 |
| ATTGTAGC | 0.0718 |
| GATTACTA | 0.202 |
| AAACCCCG | -0.166 |
| ACGAGCAT | -0.00517 |
| CCGTACTA | -0.0352 |
| GCGGGCTA | -0.168 |
| CACTAGCG | -0.193 |
| CCAGGGTA | -0.193 |
| ATTCTCGG | -0.132 |
| CTTTGGAC | -0.0734 |
| CAAGCCTA | 0.00415 |
| CAAGGTCC | -0.0948 |
| AGCTTTCG | -0.136 |
| GCACAAGA | -0.0223 |
| TCCCGAGA | -0.0887 |

| Sequence | PBM 8-mer E-score |
| --- | --- |
| GTCACCAC | -0.152 |
| ACCAACGA | 0.0612 |
| AGGGTGTA | 0.0327 |
| AGGCTACT | -0.149 |
| GTCGACCA | -0.117 |
| GATTCACC | -0.0998 |
| AGCGCACC | -0.199 |
| ACGGTCGC | -0.1 |
| GTCATGAA | -0.112 |
| AATGTGAT | 0.0908 |
| CTCGTCCA | -0.307 |
| AAGATCGA | 0.0129 |
| ATGTCGAC | 0.0419 |
| GCCTCGCC | -0.29 |
| AAATGAGG | 0.0468 |
| ACCTTTAA | 0.252 |
| GTATATAC | 0.41 |
| AAACTCCG | 0.0101 |
| CATTAAGC | 0.0879 |
| CTGTCATC | -0.155 |
| TCGACGCA | 0.0269 |
| GTAGTCAA | 0.0203 |
| CGGGAACC | -0.262 |
| AAGTGTTC | 0.122 |
| AAGTATGA | 0.236 |

| Sequence | PBM 8-mer E-score |
| --- | --- |
| TCGTAAGA | 0.0638 |
| GTGTAACA | 0.206 |
| ATTGCTAC | 0.11 |
| AAGAGAAT | 0.126 |
| CCGAACAC | -0.171 |
| ACAAGGTA | -0.0731 |
| AGTTAAAA | 0.37 |
| GCCCCTAC | -0.269 |
| GGATAGCC | -0.302 |
| AATAGCGC | 0.167 |
| CTCCAGCA | -0.216 |
| ATGACCAA | 0.0889 |
| CTCTGAGC | -0.201 |
| AAAGGACC | -0.146 |
| AACACTCG | -0.0649 |
| GGTCCACA | 0.0192 |
| CTGGCCCC | -0.243 |
| CTACTGGC | -0.0919 |
| AACCCGAT | -0.0416 |
| CAGGGTAC | -0.17 |
| CAGCCGGC | -0.326 |
| CCTGACCC | -0.294 |
| TACGGTAA | 0.149 |
| CAGCGCTA | -0.16 |
| CTAACCAA | 0.106 |

| Sequence | PBM 8-mer E-score |
| --- | --- |
| AGAAGGCT | -0.316 |
| GGGAGTGA | -0.218 |
| ATAAAGTC | 0.191 |
| AGGTTATA | 0.239 |
| CCTCGAAG | -0.127 |
| ATACTGAT | 0.1 |
| GCTGAACA | -0.239 |
| CCGTAGTA | -0.0648 |
| GGCTTCAA | -0.0744 |
| AGCTTTGA | -0.0401 |
| CGGAAGTC | -0.138 |
| ACCCGGCC | -0.152 |
| AAAGAGTA | 0.165 |
| CTTTGTGA | 0.0143 |
| CCTTCTCA | -0.16 |
| AGGCAACG | -0.115 |
| GATTGGTA | 0.178 |
| CCTGAAAG | -0.101 |
| GACCACAC | -0.136 |
| GACCCCTC | -0.284 |
| GGCCCTAC | -0.294 |
| GCGCGCGC | 0.0499 |
| CGCCCAAA | -0.0445 |
| CAACCCGC | -0.00327 |
| AACGACGC | -0.113 |

| Sequence | PBM 8-mer E-score |
| --- | --- |
| ACTCTCCA | -0.00357 |
| ATCCCTTC | -0.172 |
| GCCAGTGA | -0.318 |
| CGCTGAAC | -0.167 |
| AACGCCTG | -0.179 |
| CACTTACG | 0.102 |
| CCATAAAA | 0.202 |
| ACAATATG | 0.262 |
| ACATCACC | -0.215 |
| TCACAGAA | -0.0614 |
| GACAGCCA | -0.0601 |
| CTTGAACC | -0.162 |
| ACAAAATA | 0.39 |
| ACTCTAAC | 0.11 |
| GATGAATC | -0.0617 |
| CGTGTAGC | -0.186 |
| CCGAACAG | -0.0091 |
| CTCGCGGC | -0.259 |
| AGCCGCCC | -0.214 |
| CTATACTC | -0.0354 |
| AGTGAGTG | -0.0324 |
| CGATTCCC | -0.0911 |
